# Assay results published in article PMC4336329 (PLoS ONE, 2015).
# Out of some 310,000 compounds screened, about 14,000 (4.5%) showed an effect of 50% or more. The effect is printed as a negative number. The list shows a part of the results.
# Biological target: human ether-à-go-go-related gene (hERG) potassium channel (human, UniProt Q12809)
# Experiment: primary screen, population patch clamp on CHO cells stably expressing hERG
# 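Also: peak tail current of the secondary pulse compared with the same well before compound.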
# Sequence of human ether-à-go-go-related gene (hERG) potassium channel (Q12809 whole entry, looked up): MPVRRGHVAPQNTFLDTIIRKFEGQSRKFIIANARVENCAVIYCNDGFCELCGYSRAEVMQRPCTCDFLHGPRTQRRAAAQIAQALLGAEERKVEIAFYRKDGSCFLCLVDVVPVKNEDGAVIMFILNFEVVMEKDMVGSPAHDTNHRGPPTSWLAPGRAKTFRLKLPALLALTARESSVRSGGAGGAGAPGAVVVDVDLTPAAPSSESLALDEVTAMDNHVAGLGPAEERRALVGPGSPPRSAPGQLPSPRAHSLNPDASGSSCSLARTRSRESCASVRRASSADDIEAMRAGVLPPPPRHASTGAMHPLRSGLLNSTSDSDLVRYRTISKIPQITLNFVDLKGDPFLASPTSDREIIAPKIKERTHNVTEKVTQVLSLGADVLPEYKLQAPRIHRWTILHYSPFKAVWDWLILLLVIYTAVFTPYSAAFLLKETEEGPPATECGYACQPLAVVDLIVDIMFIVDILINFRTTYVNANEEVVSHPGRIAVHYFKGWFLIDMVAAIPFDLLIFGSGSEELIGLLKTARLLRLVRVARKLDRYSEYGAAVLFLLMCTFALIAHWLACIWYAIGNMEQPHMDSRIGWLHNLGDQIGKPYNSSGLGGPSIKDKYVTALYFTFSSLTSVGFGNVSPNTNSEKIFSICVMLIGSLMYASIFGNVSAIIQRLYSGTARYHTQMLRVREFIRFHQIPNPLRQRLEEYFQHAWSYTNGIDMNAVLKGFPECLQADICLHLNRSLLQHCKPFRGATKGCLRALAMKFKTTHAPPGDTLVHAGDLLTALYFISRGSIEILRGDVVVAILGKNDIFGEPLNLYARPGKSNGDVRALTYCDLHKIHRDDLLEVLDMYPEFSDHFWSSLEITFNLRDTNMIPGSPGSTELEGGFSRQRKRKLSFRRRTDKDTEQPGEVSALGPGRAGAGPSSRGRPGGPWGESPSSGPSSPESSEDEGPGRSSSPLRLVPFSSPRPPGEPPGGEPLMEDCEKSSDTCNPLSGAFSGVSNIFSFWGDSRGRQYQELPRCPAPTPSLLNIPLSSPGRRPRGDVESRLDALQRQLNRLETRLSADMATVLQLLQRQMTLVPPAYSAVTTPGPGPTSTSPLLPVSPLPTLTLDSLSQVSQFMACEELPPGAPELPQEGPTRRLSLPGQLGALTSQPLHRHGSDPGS
row,Compound,"hERG current change (%, negative = inhibition) at 10uM [%]"
1,COc1ccc(NC(=O)CC(c2ccccc2)c2ccco2)cc1 (stereo not drawn),8.54
2,CSc1ccc(CN(C)C(=O)CN2C(=O)NC3(CCCC3)C2=O)cc1,2.19
3,O=C(Nc1ccc(Nc2ccccc2)cc1)c1ccc(Br)o1,-8.52
4,CSCCC(NC(=O)c1ccc(C)o1)C(=O)O (stereo not drawn),10.2
5,COc1ccc(N(C)S(=O)(=O)c2cccc(C(=O)NCc3ccc4c(c3)OCO4)c2)cc1,2.95
6,O=C(CNS(=O)(=O)c1ccccc1)OCC(=O)c1cccc([N+](=O)[O-])c1,-6.17
7,O=C(CN1CCC(n2nnc3cc(F)ccc32)CC1)Nc1ccccc1N1CCOCC1,-66.6
8,Cc1ccc(C2=CSC3=NS(=O)(=O)CCN23)cc1C,-4.1
9,COc1ccc(C(=O)NCC(=O)O)cc1,5.12
10,CCOC(=O)N1CCN(c2cc(=O)n(-c3ccccc3C)c(=O)[nH]2)CC1,5.23
11,O=C(N/N=C1\CCCc2c1[nH]c1ccc(Cl)cc21)c1ccncc1,-8.42
12,O=c1[nH]c(CSc2nnc(-c3ccccc3)n2C2CCCCC2)nc2ccccc12,-6.75
13,O=C(Nc1ccccc1-c1ccccc1)NC1CC2CCCC(C1)N2Cc1ccc(F)cc1 (stereo not drawn),-66.4
14,Cc1ccc(OCc2ccc([N+](=O)[O-])cc2)c([N+](=O)[O-])n1,-29.2
15,CC1=CC(C)(C)N2C(=O)C(=Nc3ccc(O)cc3)c3cccc1c32,-5.39
16,C=C[C@@H]1C2=CCOC(=O)C2=CO[C@H]1O[C@@H]1O[C@H](CO)[C@@H](O)[C@H](O)[C@H]1O,20.1
17,CC1(C)Cc2c(C#N)c(N3CCN(C(=O)c4ccccc4)CC3)nc(-c3ccco3)c2CS1,4.82
18,COc1ccc(CCN2C(=O)CC(NNC(=O)c3ccccc3Br)C2=O)cc1OC (stereo not drawn),22.8
19,CCCC(=O)N1CCN(c2ccc(NC(=O)c3ccco3)cc2)CC1,4.23

row,Compound,"hERG current change (%, negative = inhibition) at 10uM [%]"
1,CN(C)C1=NC[C@H](Cc2ccccc2)N1CCc1ccc(F)cc1,-60.6
2,Cc1ccc(NC(=O)CSc2nnc(/N=C/N(C)C)s2)cc1,-7.65
3,CC(=O)Nc1ccc(C(=O)Nc2nc(-c3ccccn3)cs2)cc1,21.3
4,CCn1c(=O)c2sccc2n(Cc2cccc(C)c2)c1=O,-2.29
5,CC(Sc1nc(N)cc(N)n1)C(=O)NCCC1=CCCCC1 (stereo not drawn),5.6
6,COc1ccc(NC(=O)Nc2cccnc2)c(OC)c1,30.3
7,CCCCOC(=O)c1ccc(NC(=O)/C=C/c2cccs2)cc1,-17.1
8,CCN(CC)S(=O)(=O)c1ccc(N2CCCC2)c(NC(=O)C2=COCCO2)c1,-40
9,COc1ccc(C(=O)N(Cc2sccc2C)C2CCS(=O)(=O)C2)cc1 (stereo not drawn),-11.6
10,C/C(=N\NC(=O)Cc1c(C)[nH][nH]c1=O)c1cccc(Br)c1,16.3
11,COc1ccc(CN2CCCN(C)CC2)c(OC)c1C,11.1
12,COc1ccc(S(=O)(=O)Nc2ccccn2)c(C)c1C,15.1
13,COc1ccc(N2CCN(C(CNC(=O)c3cccs3)c3ccco3)CC2)cc1 (stereo not drawn),18.5
14,O=C(Cn1cnc2ccccc2c1=O)N1CCN(c2ccccc2)CC1,-25.5
15,C/C(=N\NC(=O)CC#N)C1COc2ccccc2O1 (stereo not drawn),13
16,CCC(C)(C)n1nnnc1C(c1ccc(C)cc1)N1CCSCC1 (stereo not drawn),-55.1
17,Clc1ccc(N=C2SCCS2)cc1,5.13
18,NC(=O)N[C@@H](Cc1c[nH]c2ccccc12)C(=O)OCC(=O)N1CCCCC1,32
19,Cc1ccc(C(=O)NNC(=S)NC(=O)c2ccccc2)cc1,14.2

row,Compound,"hERG current change (%, negative = inhibition) at 10uM [%]"
1,O=C1c2ccccc2C(=O)N1c1ccc(Cl)cc1,18.9
2,COC(=O)c1ccccc1NC(=O)CCCn1nc([N+](=O)[O-])c(Br)c1C,-19.6
3,O=C(Nc1cccc(C(F)(F)F)c1)c1cccc(NS(=O)(=O)c2ccc(O)c(C(=O)O)c2)c1,36.2
4,CCOC(=O)N1CCN(C(=O)c2c(-c3ccccc3)noc2C)CC1,1.15
5,CCOC(=O)c1cc(-c2ccc3c(c2)OCO3)nc2onc(C)c12,10.8
6,CC1(C)CC(=O)C(Sc2ccccc2)=C(O)C1,15.8
7,O=C(NCc1ccco1)/C(=C/c1ccco1)NC(=O)c1ccccc1,4.34
8,CCC(=O)N(CCO)Cc1cc2ccc(C)c(C)c2[nH]c1=O,-11.4
9,CC12CN3CC(C)(CN(C1)C3c1ccc(Cl)cc1)C2 (stereo not drawn),-1.13
10,Cn1nc(C(=O)N2CCOCC2)c([N+](=O)[O-])c1C(=O)N1CCOCC1,-54.4
11,Nc1nc(Nc2ccccc2)sc1C(=O)c1ccccc1,-17.6
12,O=c1cc2oc3cc(O)c(O)cc3c(-c3ccccc3[N+](=O)[O-])c-2cc1O,2.13
13,CCOc1ccc(NS(=O)(=O)c2ccc3c(c2)CCN3C(=O)C2CCC2)cc1,3.92
14,C[C@H](NC(=O)CCCOc1ccc(Cl)cc1Cl)c1nnc2ccccn12,-39.2
15,O=C(CCc1ccc(S(=O)(=O)N2CCOCC2)cc1)Nc1nccs1,-5.94
16,CCOC(=O)N1CCN(C(=O)CC(=O)Nc2ccc3nc4n(c(=O)c3c2)CCCCC4)CC1,10.6
17,COc1ccccc1NC(=O)Cn1c(C)nc2c(sc(=S)n2Cc2ccco2)c1=O,-32.6
18,Cc1ccc(Nc2nnc(SCC(=O)Nc3ncc(C(F)(F)F)cc3Cl)s2)cc1,4.68
19,Cc1cc(C)nc(OC(C(=O)O)C(OCC(C)C)(c2ccccc2)c2ccccc2)n1 (stereo not drawn),17.8
